# B1: SC06-086 (scFv)
# scFv: EVQLVESGAEVKKPGSSVKVSCKASGGTFSSYAISWVRQAPGQGLEWMGGIIPIFGTANYAQKFQGRVTITADESTSTAYMELSSLRSEDTAVYYCARGYAATDYGMDVWGQGTTVTVSSGTGGSGGTGSGTGGST[about 100 residues cut from this listing]FGPGTKVDIK
# notes: Vl 137-243); also called single-chain phage antibody SC06-086
# Target: T1, bovine serum albumin (BSA) (bovine, UniProt P02769)
# T1 construct: Control antigen coated at 1% in PBS (pH 7.4); also called negative control antigen
# Assay: phage ELISA, 1% BSA coated, anti-M13-HRP detection
# Method: Selected single-chain phage antibodies that were obtained in the screens described above were validated in ELISA for specific enterococcal binding activity, i.e. binding to one or more enterococcal strains prepared as described supra. 2.5×10⁸ bacteria were coated overnight at 4° C. to Maxisorp™ ELISA plates in 50 μl 50 mM carbonate buffer, pH 9.6. As negative controls, the complex antigens 2% ELK and 1% BSA both in PBS (pH 7.4) were coated. Wells were washed in PBS containing 0.1% (v/v) Tween-20 and blocked with 300 μl PBS containing 2% ELK for at least 1 hour at room temperature. The selected single-chain phage antibodies were incubated for 15 minutes in an equal volume of PBS containing 2% ELK to obtain blocked phage antibodies. The plates were emptied and the blocked single-chain phage antibodies were added to the wells. Incubation was allowed to proceed for one hour at room temperature, the plates were washed in PBS containing 0.1% (v/v) Tween-20 and bound phage antibodies were detected using an anti-M13 antibody conjugated to peroxidase. Absorbance at 492 nm was measured using a spectrophotometer. As a control, the procedure was performed simultaneously without single-chain phage antibody and with a negative control single-chain phage antibody directed against West Nile virus envelope protein (SC04-374).
# T1 sequence (P02769 25-607 limits assumed): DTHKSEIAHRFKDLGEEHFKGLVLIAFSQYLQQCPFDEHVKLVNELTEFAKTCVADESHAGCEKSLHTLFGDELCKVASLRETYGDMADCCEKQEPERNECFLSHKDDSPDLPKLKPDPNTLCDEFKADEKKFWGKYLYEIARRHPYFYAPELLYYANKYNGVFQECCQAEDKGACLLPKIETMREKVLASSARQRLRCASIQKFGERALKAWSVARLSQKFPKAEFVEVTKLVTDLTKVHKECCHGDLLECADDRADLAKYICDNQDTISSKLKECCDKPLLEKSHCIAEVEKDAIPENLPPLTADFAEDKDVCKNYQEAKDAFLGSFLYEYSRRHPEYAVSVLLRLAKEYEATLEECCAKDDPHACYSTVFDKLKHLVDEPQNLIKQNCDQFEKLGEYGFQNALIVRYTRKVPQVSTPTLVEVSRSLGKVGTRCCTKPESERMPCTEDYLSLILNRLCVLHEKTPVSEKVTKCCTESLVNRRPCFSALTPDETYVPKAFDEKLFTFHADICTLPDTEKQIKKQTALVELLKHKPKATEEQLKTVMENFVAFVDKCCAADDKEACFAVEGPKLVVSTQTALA
binder,measurement,value
B1,OD492 nm,0.062 OD492 nm

# Source: patent publication US20090169562A1 (CRUCELL HOLLAND B V, published 2009)
